# Laboratory results taken from publication PMC4336329 (PLoS ONE, 2015).
# The campaign covered roughly 310,000 compounds. About 2,200 (0.71%) showed an effect of 50% or more. Effects have a minus sign here. The list shows a part of the results.
# Target: human ether-à-go-go-related gene (hERG) potassium channel (human, UniProt Q12809)
# Test: primary screen, population patch clamp on CHO cells stably expressing hERG
# human ether-à-go-go-related gene (hERG) potassium channel, sequence (Q12809 whole entry, looked up): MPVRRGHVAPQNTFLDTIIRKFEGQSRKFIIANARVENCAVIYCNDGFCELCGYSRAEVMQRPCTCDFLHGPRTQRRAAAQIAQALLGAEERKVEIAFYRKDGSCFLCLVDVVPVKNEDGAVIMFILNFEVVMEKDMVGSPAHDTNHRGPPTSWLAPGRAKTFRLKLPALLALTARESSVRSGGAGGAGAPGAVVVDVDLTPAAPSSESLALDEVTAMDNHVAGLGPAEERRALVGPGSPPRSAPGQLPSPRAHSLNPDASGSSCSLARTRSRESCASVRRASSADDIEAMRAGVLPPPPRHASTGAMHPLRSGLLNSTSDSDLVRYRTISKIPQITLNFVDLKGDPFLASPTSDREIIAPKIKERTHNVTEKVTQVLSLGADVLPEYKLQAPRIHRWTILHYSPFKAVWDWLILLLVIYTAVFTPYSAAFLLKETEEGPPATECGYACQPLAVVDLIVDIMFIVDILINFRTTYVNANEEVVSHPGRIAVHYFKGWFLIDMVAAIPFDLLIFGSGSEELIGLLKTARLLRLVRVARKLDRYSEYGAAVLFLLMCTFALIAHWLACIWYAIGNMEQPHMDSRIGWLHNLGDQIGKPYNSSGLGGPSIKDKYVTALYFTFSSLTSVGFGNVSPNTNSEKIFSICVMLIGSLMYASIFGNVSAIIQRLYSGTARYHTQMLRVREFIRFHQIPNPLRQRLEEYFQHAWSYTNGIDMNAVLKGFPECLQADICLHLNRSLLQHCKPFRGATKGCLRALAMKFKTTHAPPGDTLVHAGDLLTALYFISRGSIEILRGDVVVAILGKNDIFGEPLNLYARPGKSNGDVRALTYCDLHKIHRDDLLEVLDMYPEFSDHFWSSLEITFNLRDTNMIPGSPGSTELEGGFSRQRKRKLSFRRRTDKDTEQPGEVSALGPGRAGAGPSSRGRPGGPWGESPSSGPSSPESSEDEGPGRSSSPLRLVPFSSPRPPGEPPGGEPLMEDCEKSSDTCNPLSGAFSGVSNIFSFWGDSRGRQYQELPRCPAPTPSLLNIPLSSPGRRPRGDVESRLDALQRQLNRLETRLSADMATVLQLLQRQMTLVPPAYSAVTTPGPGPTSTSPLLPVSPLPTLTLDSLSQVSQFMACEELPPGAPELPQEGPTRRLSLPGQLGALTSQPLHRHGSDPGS
row,SMILES,"hERG current change (%, negative = inhibition) at 1uM [%]"
1,C=CCN1C(=O)CN=C1Nc1ccccc1,17.4
2,COc1cc(NC(=O)COC(=O)c2cc(S(=O)(=O)N3CCCCC3)ccc2Cl)c(C)cc1[N+](=O)[O-],5.74
3,COc1cc2c(cc1OC)C(c1ccccc1)NC(C)(C)C2.Cl (centres unmarked),11.3
4,CCSc1nnc(-c2cc(Br)ccc2NC(C)=O)c(=O)[nH]1,1.1
5,CCNC(=S)Nc1cc(OCC)c(NC(=O)c2cccs2)cc1OCC,14
6,CC(=O)N1CCN(C(=O)c2ccc(OC3CCN(CCc4ccccc4)CC3)cc2)CC1,14.6
7,COc1ccccc1N1CC(C(=O)NCCC2=CCCCC2)CC1=O (centres unmarked),6.21
8,CCOC(=O)N(NC(=O)C(O)(c1ccccc1)c1ccccc1)c1ccccc1,5.1
9,Cc1c(C(=O)Nc2ccc3c(c2)OCO3)sc2ncn(CC(=O)N3CC(C)CC(C)C3)c(=O)c12 (centres unmarked),-10.2
10,Cc1ccc2nc(Cl)c(CN(Cc3cccs3)C(=O)C3CC3)cc2c1,15.8
11,Cc1ccc(O)c(CNc2cccc3cccnc23)c1,-4.05
12,CC1CCC2(CC1)NC(=O)N(CC(=O)Nc1ccc3[nH]c(=O)[nH]c3c1)C2=O (centres unmarked),5.93
13,CN(C)CCSc1nnc2[nH]c3ccccc3c2n1.Cl,-1.53
14,COc1ccc(CCN=Cc2ccccc2O)cc1OC,8.06
15,Cc1ccc(C(C)C)c(OCC(O)CN2CCOCC2)c1 (centres unmarked),11.8
16,CC(=O)Nc1ccc(S(=O)(=O)Nc2ccc3c(c2)OCO3)cc1,15.1
17,COc1ccc(C(=O)N/C(=C\c2ccccc2)C(=O)NCc2cccnc2)cc1,-16
18,CCOC(=O)CSc1nnc(CSc2nc(C)cc(C)n2)n1Cc1ccco1,12.4
19,NC1=NC(=O)/C(=C/c2cn(CCC(=O)O)nc2-c2ccc(Cl)cc2)S1,9.19
20,COC(=O)C1=C(C)N(C)C(=O)NC1c1cc2c(cc1[N+](=O)[O-])OCO2 (centres unmarked),5.41
21,CCc1nnc(N/N=C/c2c(Cl)cccc2Cl)n1N,7.24
22,COc1cc(C(CC(=O)Nc2ccccn2)N2Cc3ccccc3C2=O)cc(OC)c1OC (centres unmarked),6.15

row,SMILES,"hERG current change (%, negative = inhibition) at 1uM [%]"
1,CC1OC(NCCc2ccccc2)C(O)C(O)C1O (centres unmarked),-1.88
2,Cc1cc(C)c2nc(-c3ccccn3)cc(C(=O)Nn3cnnc3)c2c1,8.55
3,Cc1ccccc1C(=O)NC(=S)Nc1ccc(S(=O)(=O)N2CCOCC2)cc1,-6.86
4,Cc1ccc(-c2csc(N3CCN(S(=O)(=O)c4ccc5c(c4)NC(=O)CO5)CC3)n2)cc1,15.7
5,CCCCCCC(O)(c1ccccc1)C(CN1CCOCC1)c1ccccc1.Cl (centres unmarked),13.2
6,Cc1ccc(C)n1NC(=O)c1ccccc1Cl,7.68
7,N/C(=N\OC(=O)/C=C/c1ccccc1)c1ccc(Cl)cc1,2.94
8,CCC(C(=O)NC(C)(C)C)N(C(=O)Cn1nnc(-c2cccs2)n1)c1cnc2ccccc2c1 (centres unmarked),18.3
9,Cc1nnc(C)n1/N=C/c1ccc(-c2ccccc2Cl)o1,3.88
10,O=C1CCCc2nc(N3CCN(Cc4ccccc4)CC3)ncc21,11.8
11,COc1ccc(CNC(=O)C(c2ccncc2)N(C(=O)Cc2cccs2)c2cccnc2)cc1 (centres unmarked),5.37
12,CCOC(=O)c1c(-c2ccccc2)oc2ccc(OC(C)=O)cc12,21.8
13,Fc1ccccc1N1CCN(c2cnc3ccccc3n2)CC1,12.3
14,CCC(c1nnc(SCC(=O)Nc2ccc(C(=O)N(C)C)cc2)n1Cc1ccccc1)N(C)C (centres unmarked),5.24
15,O=C(COC(=O)/C=C/c1cccc(Cl)c1)NC(=O)NCc1ccccc1,0.487
16,NC(=O)C1CCN(C(=O)CCn2c(=O)oc3ccccc32)CC1,4.62
17,Cc1[nH]c(=O)[nH]c(=O)c1/C=N/NC(=O)CCNC(=O)OC(C)(C)C,0.692
18,CCc1cc(-c2n[nH]c(C)c2Oc2ccc(C(C)C)cc2)c(O)cc1O,3.89
19,Cc1cccc(NC2=NC(=S)N(c3ccc(C(=O)O)cc3)C23CCCCC3)c1,15.7
20,COc1cccc(/C=N/NC(=O)c2cc(-c3cccn3C)n[nH]2)c1O,5.96
21,CC1(C)O[C@@H]2[C@H](O1)[C@@H](CO)O[C@H]2n1cnc2c(N)ncnc21,10.8
22,Cc1ccc(C(=O)COc2nc(C)cc(C)c2C#N)cc1,-2.47
